# Assay results: article PMC4336329 (PLoS ONE, 2015)
# The whole screen tested about 310,000 compounds, of which about 2,200 (0.71%) showed an effect of 50% or more. The effect is printed as a negative number. The list shows a part of the results.
# Target: human ether-à-go-go-related gene (hERG) potassium channel (human, UniProt Q12809)
# Experiment: primary screen, population patch clamp on CHO cells stably expressing hERG
# human ether-à-go-go-related gene (hERG) potassium channel, sequence (Q12809 whole entry, looked up): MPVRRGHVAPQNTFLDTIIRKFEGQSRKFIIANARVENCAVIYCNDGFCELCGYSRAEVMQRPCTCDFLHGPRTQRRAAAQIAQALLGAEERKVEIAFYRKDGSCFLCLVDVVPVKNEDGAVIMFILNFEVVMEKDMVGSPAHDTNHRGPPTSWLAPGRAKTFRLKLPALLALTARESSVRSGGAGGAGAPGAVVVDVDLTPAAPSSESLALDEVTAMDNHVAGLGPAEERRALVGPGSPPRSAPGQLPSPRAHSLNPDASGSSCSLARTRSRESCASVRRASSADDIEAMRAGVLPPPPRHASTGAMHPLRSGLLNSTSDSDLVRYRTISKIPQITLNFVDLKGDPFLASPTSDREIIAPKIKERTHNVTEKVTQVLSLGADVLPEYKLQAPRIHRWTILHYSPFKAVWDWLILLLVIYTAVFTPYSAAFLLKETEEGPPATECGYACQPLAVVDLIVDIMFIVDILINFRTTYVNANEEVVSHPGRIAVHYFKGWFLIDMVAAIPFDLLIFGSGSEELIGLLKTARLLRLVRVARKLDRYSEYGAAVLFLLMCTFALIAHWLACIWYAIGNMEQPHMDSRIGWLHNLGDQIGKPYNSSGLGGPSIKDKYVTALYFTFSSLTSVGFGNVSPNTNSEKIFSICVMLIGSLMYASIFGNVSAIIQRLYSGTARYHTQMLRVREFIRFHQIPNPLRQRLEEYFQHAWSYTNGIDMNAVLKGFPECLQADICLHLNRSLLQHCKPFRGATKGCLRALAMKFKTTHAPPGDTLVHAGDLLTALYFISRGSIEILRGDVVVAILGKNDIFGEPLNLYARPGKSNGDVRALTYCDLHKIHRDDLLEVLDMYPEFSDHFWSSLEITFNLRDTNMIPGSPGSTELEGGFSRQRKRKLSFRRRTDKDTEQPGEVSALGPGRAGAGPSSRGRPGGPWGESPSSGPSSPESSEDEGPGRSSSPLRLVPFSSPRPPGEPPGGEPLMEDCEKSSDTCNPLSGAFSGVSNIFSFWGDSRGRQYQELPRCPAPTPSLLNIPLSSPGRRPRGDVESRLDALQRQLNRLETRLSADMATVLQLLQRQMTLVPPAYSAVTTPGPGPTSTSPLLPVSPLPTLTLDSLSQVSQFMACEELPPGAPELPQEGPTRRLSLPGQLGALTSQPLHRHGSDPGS
row,SMILES,"hERG current change (%, negative = inhibition) at 1uM [%]"
1,Cc1ccc(Nc2cc(C)nc3c(C)ccc([N+](=O)[O-])c23)cc1,11.7
2,C=CCNC(=S)N1CCN(Cc2ccc3c(c2)OCO3)CC1.O=C(O)C(=O)O,10.1
3,C=CCn1c(O)c(C=NC2CCN(Cc3ccccc3)CC2)c(=O)[nH]c1=O,-2.64
4,CCNCCC(=O)N1c2ccccc2Sc2ccc(C(F)(F)F)cc21.Cl,12.1
5,NC(=S)Nn1c(CCC(=O)O)ccc1-c1ccccc1,6.34
6,COc1ccccc1C(=O)N/N=C(\C)CC(=O)Nc1ccccc1NC(C)=O,11.3
7,C=CCN(CC=C)C(=O)C[n+]1ccc(C(N)=O)cc1.[Cl-],6.33
8,CSC(=NC#N)N1CCN(C(c2ccccc2)c2ccccc2)CC1,3.34
9,CCN(c1ccccc1)S(=O)(=O)c1cccc(C(=O)NCc2cccnc2)c1,1.22
10,Cc1cc(NC(=O)Nc2ccccc2[N+](=O)[O-])n(C)n1,15.8
11,N#Cc1ccc(-c2ccc(F)cc2)nc1Sc1ccc(F)cc1,1.32
12,O=C(CN1CCOCC1)N/N=C/c1ccccc1,9.36
13,Brc1ccc2nc(-c3c[nH]c4ccccc34)cn2c1,11.8
14,O=C(NCc1cccc(CNC(=O)Nc2cccc(O)c2)c1)Nc1cccc(O)c1,17.1
15,c1ccc(Cn2c3ccccc3c3nnc(SCCN4CCCCC4)nc32)cc1,-6.31
16,CCC(C)[C@H]1CNC(=S)N1CCc1cc(C(F)(F)F)cc(C(F)(F)F)c1 (some centres unmarked),10.7
17,CC(=O)N(C)c1cccc([N+](=O)[O-])c1,9.66
18,Cc1ccc2c(c1)N(CC(=O)N1CCOCC1)C(=O)CO2,8.67
19,COc1cc(/C=C2/C(=O)NN(c3ccc(F)cc3)C2=O)cc(Cl)c1O,13.4
20,O=C(CCCOc1ccc(Br)cc1)Nc1ccc(S(=O)(=O)N2CCOCC2)cc1,11.4
21,Nc1nc(SCC(=O)N2CCOCC2)n[nH]1,17.9
22,COc1ccc(CCNC(=O)C2CCN(Cc3nc(-c4ccccc4F)oc3C)CC2)cc1OC,-17.3
23,CC(C)NC(=O)C1CCN(C2CCN(C(=O)c3scc4c3CCCC4)CC2)CC1,4.56

row,SMILES,"hERG current change (%, negative = inhibition) at 1uM [%]"
1,CC(C)Sc1nc2ccccc2n1CC(=O)NCc1ccc2c(c1)OCO2,15.8
2,COc1cc(NC(=S)N2CCC(C(O)(c3ccccc3)c3ccccc3)CC2)cc(OC)c1,1.23
3,CCOC(=O)N1CCN(C(=O)CN(C2CCCCC2)S(=O)(=O)c2ccc(Cl)cc2)CC1,10.9
4,Cc1cc(NC(=O)CSc2nc(-c3ccccc3Cl)nc3c2c(=O)n(C)c(=O)n3C)no1,9.96
5,CCOc1c(Cl)cc(CNCCc2c[nH]c3ccccc23)cc1OC.Cl,0.668
6,Cc1ccc(C(=O)C(C)OC(=O)CNC(=O)c2ccc(Br)o2)cc1 (centres unmarked),-15.8
7,CC(NC(=O)c1ccncc1)c1ccc(Cl)cc1Cl (centres unmarked),12.8
8,C[NH+](C)CCCN1c2ccccc2Sc2ccc(Cl)cc21.[Cl-],-2.42
9,CCN1CCN(S(=O)(=O)c2ccc3c(c2)OCCO3)CC1,15.9
10,COC(=O)Cc1ccc(NC(=O)c2ccc3c(c2)C(=O)N(Cc2ccco2)C3=O)cc1,2.32
11,CCn1c(SCC(=O)c2ccccc2)nnc1-c1ccoc1C,8.33
12,O=C(NN=C1CCCC1)c1cc(-c2ccc(F)cc2)nc2ccccc12,8.24
13,Cc1cccc(N2CCN(CC(=O)Nc3ccccc3[N+](=O)[O-])CC2)c1C,7.72
14,COc1ccccc1C(=O)Nc1ccc(OC(C)C(=O)N2CCOCC2)cc1 (centres unmarked),3.33
15,CCCc1cc(=O)n2[nH]c(-c3cccc(Br)c3)cc2n1,9
16,COc1cc(/C=N/NC(=O)c2ccncc2)ccc1OCC(=O)Nc1ccc(C)c(C)c1,5.37
17,O=C(Nc1ccc(N2CCN(Cc3ccccc3)CC2)cc1)c1ncn[nH]1,11.1
18,COC(CNC(=O)C1CCCN(S(=O)(=O)c2c(C)noc2/C=C/c2cccs2)C1)OC (centres unmarked),7.28
19,Cc1ccc(OCC(=O)Nc2ccc(S(=O)(=O)Nc3ccccn3)cc2)cc1C,12.3
20,CC(=O)c1sc(NC(=O)COc2c(C)cc(Cl)cc2C)nc1C,18
21,O=C(Nc1cccc(Cl)c1)c1ccc2ncsc2c1,14.7
22,COc1cccc(CNC(=O)CCCn2ccc3cc(S(=O)(=O)N4CCCC4)ccc32)c1,12.3
23,CSc1nncc(-c2ccc(F)cc2)n1,0.691

row,SMILES,"hERG current change (%, negative = inhibition) at 1uM [%]"
1,COc1ccc(Nc2nc3c(c(=O)n(C)c(=O)n3C)n2CCO)cc1,13.1
2,C/C(=N\NC(=O)Cc1cccn1C)c1cccs1,21.2
3,Cc1cc(C)c(S(=O)(=O)Nc2ccc(N(C)C)cc2)c(C)c1-n1cnnn1,9.5
4,Cc1cc(=O)oc2cc(OCC(=O)NC(Cc3c[nH]c4ccc(O)cc34)C(=O)O)c(Cl)cc12 (centres unmarked),-7.05
5,Cc1ccc(N=Cc2ccc(O)cc2O)cc1F,17.7
6,C=CCn1c(C)cc(C(=O)CN2C(=O)c3ccccc3C2=O)c1C,5.61
7,Cc1ccc2ncnc(Nc3ccc(C)c(C)c3)c2c1,-0.718
8,COc1ccc(-c2cc3c(=O)n(CC(=O)NCCCN4CCC(N5CCCCC5)CC4)ncn3n2)cc1,16.5
9,CCn1cc(C(=O)O)c(=O)c2cc(S(=O)(=O)N(C)C)ccc21,-1.51
10,COCC1CCN(Cc2cn[nH]c2-c2ccc(OC)cc2F)C1 (centres unmarked),3.85
11,CN(Cc1cn[nH]c1-c1ccc2c(c1)OCO2)C1CCOCC1,8.56
12,Cc1ccc(C(=O)CCC(=O)Nc2ccc(Cl)c(S(=O)(=O)Nc3cccc(Cl)c3)c2)cc1,9.32
13,CC(=O)Nc1ccc(C(=O)Nc2cccc(S(=O)(=O)N(C)c3ccccc3)c2)cc1,7.73
14,CS(=O)(=O)Cc1cccc(C(=O)NC2CCSc3ccccc32)c1 (centres unmarked),16.3
15,CCc1nc2ccc(C)cc2c(C(=O)NC2CCCCC2C)c1C (centres unmarked),-4.7
16,CCN(CC)S(=O)(=O)c1cccc(C(=O)OCC(=O)C23CC4CC(CC(C4)C2)C3)c1,6.54
17,CC(C)(C)n1ncc2c(=O)n(CC(=O)Nc3ccc4c(c3)OCO4)cnc21,13.1
18,CC(=O)N1N=C(c2ccc(C)cc2)OC1c1cccnc1 (centres unmarked),2.91
19,O=C(Nc1cc2c3c(c1)CC(=O)N3CCC2)C1CCCCC1,2.81
20,O=C(NCS(=O)(=O)c1ccccc1)c1ccccc1,2.78
21,NC(=O)CN1CCCN(S(=O)(=O)c2ccc(Br)cc2)CC1,-6.9
22,COc1ccccc1OCC(=O)OCn1c(SC)nnc(C)c1=O,22.1
23,O=C(NCc1nc2ccccc2[nH]1)C1=C[C@@H](C2CCCCC2)C[C@@H](OCCCCO)O1,10.9

row,SMILES,"hERG current change (%, negative = inhibition) at 1uM [%]"
1,CCN1CCCC1CN(Cc1cc2ccc(C)cc2[nH]c1=O)C(=S)Nc1ccccc1OC (centres unmarked),17.1
2,Cc1cc(NC(=O)Nc2ccc3c(ccn3C)c2)sn1,16.1
3,COc1cccc(NC(=O)C2C3C=CC(O3)C2C(=O)NCc2cccnc2)c1 (centres unmarked),-17.7
4,CCN1CCN(Cc2ccc(C)cc2C)CC1,11.9
5,CCCn1c(N2CCN(CC(=O)Nc3ccc4c(c3)OCCO4)CC2)nc2ccccc21.Cl,-29.2
6,Cc1ccn2c(=O)c(NC(=O)c3ccc(Br)o3)c(C)nc2c1,13.6
7,Cc1sc2nc(SCC(=O)Nc3ccccc3F)[nH]c(=O)c2c1C,13.4
8,COc1ccc(CC(=O)N2CCc3ccccc3C2)cc1,7.2
9,Nc1ccc(C(=O)Nc2cccc(N)c2)cc1,13.9
10,c1cc2c(cc1Cn1cnnn1)OCO2,12.6
11,CC1(C)Cc2cccc(OCC(=O)N3CCN(c4ccccc4)CC3)c2O1,-2.57
12,C/C=C(/C)C(=O)O[C@@H]1c2c(ccc3ccc(=O)oc23)O[C@@H]1C(C)(C)OC(=O)/C(C)=C\C,11.4
13,COc1cc(/C=C/C(=O)OCC(=O)N2CCCC2)cc(OC)c1OC,10.9
14,COc1cccc(NC(=O)c2c(C)nn(-c3ccccc3)c2Cl)c1,14.9
15,CSc1ncccc1C(=O)Nc1cc(C)ccn1,13.9
16,CCC1CCCCN1CCNC(=O)CCS(=O)(=O)c1ccc(Br)cc1 (centres unmarked),-4.9
17,CC(CCc1ccccc1)NC(=O)[C@@H]1Cc2ccccc2CN1.Cl (some centres unmarked),6.57
18,COc1ccc(/C=N/NC(=O)c2cc[n+]([O-])cc2)cc1OC,22.9
19,O=C(N/N=C/c1ccc(Cl)cc1)c1sccc1OCc1ccc(F)cc1,20.5
20,COCCCNC(=O)CN1C(=O)/C(=C/c2ccccc2C)Sc2ccccc21,7.95
